Article doi:10.1101/2022.01.13.476208
pKd: −log10 of the molar value.

Target: Wild-type GPIbα, residues 1-290, without Avi-tag
Test: ITC
Settings: domain or fragment, chains chain

Sequence of Wild-type GPIbα, residues 1-290, without Avi-tag (P07359 17-306): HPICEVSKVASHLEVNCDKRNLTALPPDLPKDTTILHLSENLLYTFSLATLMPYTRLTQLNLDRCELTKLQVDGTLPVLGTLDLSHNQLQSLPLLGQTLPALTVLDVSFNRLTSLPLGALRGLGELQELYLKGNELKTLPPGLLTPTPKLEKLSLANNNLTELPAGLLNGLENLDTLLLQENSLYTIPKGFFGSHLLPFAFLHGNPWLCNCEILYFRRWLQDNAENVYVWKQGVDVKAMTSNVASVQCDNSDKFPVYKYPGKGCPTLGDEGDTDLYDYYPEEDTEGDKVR

Substance | pKd (O-glycosylated C-linker) | pKd
A1+OGly+C (a stretch of the chain, no sequence given) | 5.94 | 
A1 short (a stretch of the chain, no sequence given) |  | 6.54
